Further values from the same series stand in other lists.
System: PRISM panel of 845 cancer cell lines
Assay: PRISM assay
Format: cell-based, human
Experimental: The PRISM cell set comprised 845 cell lines representing more than 45 lineages (see Supplementary Table S1 for cell line information), which largely overlapped with the Cancer Cell Line Encyclopedia; https://portals.broadinstitute.org/ccle). Cell lines were grown in RPMI without phenol red and supplemented with 10% or 20% FBS for adherent and suspended lines, respectively. Parental cell lines were stably infected with a unique 24-nucleotide DNA barcode via lentiviral transduction and blasticidin selection. After selection, barcoded cell lines were expanded and subjected to quality control (Mycoplasma contamination test, an SNP test for confirming cell line identity, and barcode ID confirmation). Approved cell lines were then pooled (20–25 cell lines per pool) based on doubling time similarity and frozen in assay-ready vials.
RMC-6236 was added to 384-well plates at 8-point concentration with 3-fold dilutions in triplicate. These assay-ready plates were then seeded with the thawed cell line pools. Adherent cell pools were plated at 1,250 cells per well, whereas suspension and mixed adherent/suspension pools were plated at 2,000 cells per well. Treated cells were incubated for 5 days, and then lysed. Lysate plates were collapsed together prior to barcode amplification and detection.
Each cell line's unique barcode is located in the 3′UTR of the blasticidin-resistance gene and therefore is expressed as mRNA. Total mRNA was captured using magnetic particles that recognize polyA sequences. Captured mRNA was reverse-transcribed into cDNA and then the sequence containing the unique PRISM barcode was amplified using PCR. Finally, Luminex beads that recognize the specific barcode sequences in the cell set were hybridized to the PCR products and detected using a Luminex scanner which reports the signal as a median fluorescent intensity (MFI).
• Each detection well contained 10 control barcodes in increasing abundances as spike-in controls. For each plate, we first create a reference profile by calculating the median of the log2(MFI) values across negative control wells for each of these spiked-in barcodes. • For each well, a monotonic smooth p-spline was fitted to map the spike-in control levels to the reference profile. Next, we transform the log2(MFI) for each cell barcode using the fitted spline to allow well-to-well comparisons by correcting for amplification and detection artifacts. • Next, the separability between negative and positive control treatments was assessed. In particular, we calculated the error rate of the optimum simple threshold classifier between the control samples for each cell line and plate combination. The error rate is a measure of the overlap of the two control sets and was defined as error = (FP + FN)/n, where FP is false positives, FN is false negatives, and n is the total number of controls. A threshold was set between the distributions of positive and negative control log2(MFI) values (with everything below the threshold said to be positive and above said to be negative) such that this value is minimized. Additionally, we also calculated the dynamic range of each cell line. […] Additionally, any cell line that had less than 2 passing replicates was also omitted for the sake of reproducibility. Finally, we computed viability by normalizing with respect to the median negative control for each plate.
For every gene with nonsilent mutations in at least four cell lines, we compared the AUC values between cells with and without those mutations using a t test. This analysis was carried out for (i) the full data set; (ii) excluding cell lines with nonsilent KRAS mutations; and (iii) excluding cell lines that have either KRAS or NRAS nonsilent mutations.

SMILES: CCn1c(-c2cc(N3CCN(C)CC3)cnc2[C@H](C)OC)c2c3cc(ccc31)-c1csc(n1)C[C@H](NC(=O)[C@H]1C[C@@H]1C)C(=O)N1CCC[C@H](N1)C(=O)OCC(C)(C)C2 [RMC-6236]
- RMC-6236: RevMed PRISM: AUC (TGW_AUTONOMIC_GANGLIA): 0.9884
- RMC-6236: RevMed PRISM: AUC (THP1_HAEMATOPOIETIC_AND_LYMPHOID_TISSUE, NRAS p.G12D): 0.7542
- RMC-6236: RevMed PRISM: AUC (TM31_CENTRAL_NERVOUS_SYSTEM): 1
- RMC-6236: RevMed PRISM: AUC (TOV112D_OVARY): 0.7259
- RMC-6236: RevMed PRISM: AUC (TT1TKB_LARGE_INTESTINE, KRAS p.G12C): 0.2815
- RMC-6236: RevMed PRISM: AUC (TT2609C02_THYROID, NRAS p.Q61R): 0.5094
- RMC-6236: RevMed PRISM: AUC (TTC709_SOFT_TISSUE): 0.849
- RMC-6236: RevMed PRISM: AUC (TT_OESOPHAGUS): 0.7933
- RMC-6236: RevMed PRISM: AUC (TYKNU_OVARY, NRAS p.Q61K, p.G12D): 0.3531
- RMC-6236: RevMed PRISM: AUC (U2OS_BONE): 0.7282
- RMC-6236: RevMed PRISM: AUC (U87MG_CENTRAL_NERVOUS_SYSTEM): 0.8256
- RMC-6236: RevMed PRISM: AUC (U118MG_CENTRAL_NERVOUS_SYSTEM): 0.7317
- RMC-6236: RevMed PRISM: AUC (U178_CENTRAL_NERVOUS_SYSTEM): 0.775
- RMC-6236: RevMed PRISM: AUC (U251MG_CENTRAL_NERVOUS_SYSTEM): 0.8027
- RMC-6236: RevMed PRISM: AUC (U266B1_HAEMATOPOIETIC_AND_LYMPHOID_TISSUE): 0.9207
- RMC-6236: RevMed PRISM: AUC (U343_CENTRAL_NERVOUS_SYSTEM): 0.7767
- RMC-6236: RevMed PRISM: AUC (U937_HAEMATOPOIETIC_AND_LYMPHOID_TISSUE): 0.5734
- RMC-6236: RevMed PRISM: AUC (UACC62_SKIN): 0.936
- RMC-6236: RevMed PRISM: AUC (UBLC1_URINARY_TRACT): 0.5777
- RMC-6236: RevMed PRISM: AUC (UMRC7_KIDNEY): 0.8383
- RMC-6236: RevMed PRISM: AUC (UMUC1_URINARY_TRACT): 0.5688
- RMC-6236: RevMed PRISM: AUC (UMUC5_URINARY_TRACT): 0.4967
- RMC-6236: RevMed PRISM: AUC (UMUC7_URINARY_TRACT): 0.8366
- RMC-6236: RevMed PRISM: AUC (UO31_KIDNEY): 0.832
- RMC-6236: RevMed PRISM: AUC (UPCISCC072_UPPER_AERODIGESTIVE_TRACT): 0.8908
- RMC-6236: RevMed PRISM: AUC (UPCISCC111_UPPER_AERODIGESTIVE_TRACT): 0.5878
- RMC-6236: RevMed PRISM: AUC (UPCISCC116_UPPER_AERODIGESTIVE_TRACT): 0.4666
- RMC-6236: RevMed PRISM: AUC (UW228_CENTRAL_NERVOUS_SYSTEM): 0.6552
- RMC-6236: RevMed PRISM: AUC (VAESBJ_SOFT_TISSUE): 1
- RMC-6236: RevMed PRISM: AUC (VMCUB1_URINARY_TRACT): 0.5496
- RMC-6236: RevMed PRISM: AUC (VMRCRCW_KIDNEY): 0.864
- RMC-6236: RevMed PRISM: AUC (WAOSEL_HAEMATOPOIETIC_AND_LYMPHOID_TISSUE): 0.624
- RMC-6236: RevMed PRISM: AUC (WM88_SKIN): 0.8371
- RMC-6236: RevMed PRISM: AUC (WM983B_SKIN): 0.861
- RMC-6236: RevMed PRISM: AUC (WM1799_SKIN): 1
- RMC-6236: RevMed PRISM: AUC (WM2664_SKIN): 1
- RMC-6236: RevMed PRISM: AUC (YAPC_PANCREAS, KRAS p.G12V): 0.306
- RMC-6236: RevMed PRISM: AUC (YD8_UPPER_AERODIGESTIVE_TRACT, KRAS p.G138V): 0.775
- RMC-6236: RevMed PRISM: AUC (YSCCC_BILIARY_TRACT): 0.8018
- RMC-6236: RevMed PRISM: AUC (ZR751_BREAST, HRAS p.E162K): 0.9247
- RMC-6236: RevMed PRISM: AUC (cell line 8MGBA_CENTRAL_NERVOUS_SYSTEM): 0.9168
- RMC-6236: RevMed PRISM: AUC (cell line 93T449_SOFT_TISSUE): 0.9525
- RMC-6236: RevMed PRISM: AUC (cell line 143B_BONE, KRAS p.A59T): 0.4977
- RMC-6236: RevMed PRISM: AUC (cell line 639V_URINARY_TRACT, NRAS p.H131R): 0.6064
- RMC-6236: RevMed PRISM: AUC (cell line 697_HAEMATOPOIETIC_AND_LYMPHOID_TISSUE, NRAS p.G12D): 0.581
- RMC-6236: RevMed PRISM: AUC (cell line 5637_URINARY_TRACT): 0.5972
